Assay results reported in PubChem BioAssay AID485367 (National Center for Advancing Translational Sciences (NCATS), 2010).
About 560 (0.17%) of roughly 330,000 compounds were called active. Inconclusive results, whose numbers are uncertain, are shown with a selection of clear calls. Calls follow the shape of the dose curve; as a rule, active = well fitted inhibition curve with a large enough effect; inconclusive = small, poorly fitted or top-dose-only effect, or effect the other way; inactive = flat fitted curve, though single readings scatter. Potencies of inconclusive entries are left out as doubtful fits.

Molecular target: ATP-dependent 6-phosphofructokinase (Trypanosoma brucei brucei) (UniProt O15648)
Chain of UniProt O15648 (O15648 whole entry, looked up): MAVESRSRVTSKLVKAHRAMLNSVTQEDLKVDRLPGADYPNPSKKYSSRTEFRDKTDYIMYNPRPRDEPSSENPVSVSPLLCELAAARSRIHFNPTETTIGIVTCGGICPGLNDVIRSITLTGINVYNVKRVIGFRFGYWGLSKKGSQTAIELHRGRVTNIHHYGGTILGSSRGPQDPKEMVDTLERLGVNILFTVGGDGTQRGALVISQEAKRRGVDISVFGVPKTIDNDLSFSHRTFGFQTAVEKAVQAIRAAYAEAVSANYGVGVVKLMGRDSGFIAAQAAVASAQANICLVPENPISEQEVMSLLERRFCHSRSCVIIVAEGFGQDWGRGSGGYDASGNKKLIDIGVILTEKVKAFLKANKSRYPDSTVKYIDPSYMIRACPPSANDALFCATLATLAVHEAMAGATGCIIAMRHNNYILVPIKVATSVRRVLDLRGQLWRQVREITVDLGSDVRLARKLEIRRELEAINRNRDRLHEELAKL
Experiment: qHTS Assay to Find Inhibitors of T. brucei phosphofructokinase; also: nearly all actives have a fitted effect of over 60% in size;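 as to activity, negative = inhibition: 0% = uninhibited 1x PFK enzyme wells and -100% = no-enzyme wells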
Conditions: T. brucei PFK, ADP-Glo luminescence; activity, negative = inhibition: at 57.5 µM (top of the series)
Outline: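 Luminescent ADP detection (ADP-Glo, two-step: ATP depletion then ADP-to-ATP conversion for luciferase) reported PFK activity after 45 min room-temperature reaction of 1.25 nM enzyme with 0.5 mM F6P and 0.1 mM ATP at pH 8.0.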
Potency is read from the fitted curve at half-maximal effect; tags tell the direction and shape of the fitted curve.

**Q.** How did the Potency turn out when `COc1ccc(/C=N/NC(=O)Cc2ccc(Cl)cc2)cc1OC` was run?
**A.** inconclusive [falling, partial curve]

**Q.** How did the “activity, negative = inhibition” value turn out when `COc1cccc2c(C)nc(Nc3nc(CSc4nnc(C)s4)cc(=O)[nH]3)nc12` was run?
**A.** inactive: -4.53%

**Q.** For `COc1ccc2nc(NC(=O)c3ccccc3[N+](=O)[O-])sc2c1`, which “activity, negative = inhibition” value is on record?
**A.** inactive: 4.33%

**Q.** With `Cc1cccc(NC(=O)CNC(=O)CCc2nc3sc4c(c3c(=O)[nH]2)CCCC4)c1C` as the compound, how does the Potency read?
**A.** inconclusive [falling, full curve]

**Q.** Which “activity, negative = inhibition” value does the source give for `O=C(CC1S/C(=N/N=C2CCCCCC2)NC1=O)Nc1ccccc1F` (stereo not given) here?
**A.** inactive: 0.777%

**Q.** `CCCOc1ccc(/C=N/NC(=S)Nc2ccccc2[N+](=O)[O-])c(O)c1` was tested. Which “activity, negative = inhibition” value did it give?
**A.** inactive: 2.09%

**Q.** Which Potency does the source give for `NS(=O)(=O)c1cccc(NC(=O)COC(=O)c2ccccc2C(=O)c2ccccc2)c1` here?
**A.** inconclusive [falling, single point]

**Q.** `O=C(CCC(=O)N1CCN(c2ccc(Cl)c(Cl)c2)CC1)c1ccccc1` was tested. Which Potency did it give?
**A.** inconclusive [falling, single point]

**Q.** For `O=C1OCC(CO)(CO)N=C1NNc1ccc(Cl)c(Cl)c1`, which Potency is on record?
**A.** inconclusive [falling, single point]

**Q.** With `COc1ccc2nc(N3CCCCC3)c(C#N)cc2c1` as the compound, how does the “activity, negative = inhibition” value read?
**A.** inactive: 1.01%

**Q.** With `COc1ccc(CCC(=O)Nc2ccc(S(=O)(=O)Nc3nccc(C)n3)cc2)cc1` as the compound, how does the “activity, negative = inhibition” value read?
**A.** inactive: -24%

**Q.** For `Nc1nn(-c2ccccc2)c(N)c1N=Nc1cccc(F)c1`, which Potency is on record?
**A.** inconclusive [activator, single point]

**Q.** How did the Potency turn out when `COc1ccc(Br)cc1C1Nc2cccc3cccc(c23)N1` was run?
**A.** inconclusive [falling, partial curve]

**Q.** With `O=C1c2cccnc2C(O)N1C1CCCCC1` (stereo not given) as the compound, how does the Potency read?
**A.** inconclusive [falling, single point]

**Q.** For `C/C=C(\C)C(=O)N1CC2(CC(c3cccc(NC(=O)COc4ccc(Cl)cc4)c3)=NO2)C[C@@H]1C(N)=O` (stereo not given in full), which “activity, negative = inhibition” value is on record?
**A.** inactive: -13.8%

**Q.** For `CNC(=S)Nc1cccc(C(=O)OC)c1`, which “activity, negative = inhibition” value is on record?
**A.** inactive: 1.23%

**Q.** How did the Potency turn out when `CN(C)CCNc1oc(COc2ccc(Cl)cc2)nc1C#N` was run?
**A.** inconclusive [falling, single point]

**Q.** How did the Potency turn out when `Nc1ccc2nc(-c3ccc(-c4nc5ccc(N)cc5[nH]4)cc3)[nH]c2c1` was run?
**A.** inconclusive [activator, single point]

**Q.** With `N#Cc1ccc2c(c1)C[C@]1(CCCCN3C(=O)c4ccccc4C3=O)Oc3c(c(=O)oc4ccc(F)cc34)C2O1` as the compound, how does the activity, negative = inhibition read?
**A.** inactive: 3.36% [at 11.5 µM]

**Q.** For `CC(C)COc1ccc(-c2nn(-c3ccccc3)cc2/C=C2/SC(=S)N(CC(=O)O)C2=O)cc1`, which Potency is on record?
**A.** inconclusive [falling, single point]

**Q.** How did the “activity, negative = inhibition” value turn out when `O=C(Nc1nc(-c2ccccn2)cs1)c1ccc2c(c1)OCCO2` was run?
**A.** inactive: 10%

**Q.** With `Cc1cccc(-c2nn(-c3ccccc3)cc2C(=O)N(C)CC(=O)Nc2ccc(N3CCOCC3)cc2)c1` as the compound, how does the “activity, negative = inhibition” value read?
**A.** inactive: -11.8%

**Q.** For `O=C(O)c1ccc(NS(=O)(=O)c2ccc3c(c2)C(=O)c2cc(S(=O)(=O)Nc4ccc(C(=O)O)cc4)ccc2-3)cc1`, which Potency is on record?
**A.** inconclusive [falling, single point]

**Q.** For `CSc1ccc(C2C(C(=O)c3ccco3)=C(O)C(=O)N2c2nnc(SC)s2)cc1` (stereo not given), which Potency is on record?
**A.** inconclusive [falling, single point]

**Q.** `CC(Nc1ccc(Cl)c(Cl)c1)C(=O)NN` (stereo not given) was tested. Which Potency did it give?
**A.** inconclusive [falling, partial curve]

**Q.** How did the “activity, negative = inhibition” value turn out when `Cc1cc(C)c(NC(=O)OCCN2CCOCC2)c(C)c1` was run?
**A.** inactive: -0.599%

**Q.** For `O=C(/C(=C/O)N=Nc1cccc(C(F)(F)F)c1)c1ccccc1`, which Potency is on record?
**A.** inconclusive [activator, single point]

**Q.** With `O=C(c1ccccc1)c1ccc(Oc2ccc(C(=O)O)c(C(=O)O)c2)cc1` as the compound, how does the Potency read?
**A.** inconclusive [falling, single point]

**Q.** For `CCOC(=O)c1sc(N/N=C/c2cc(Br)c(O)c(OC)c2)nc1C`, which Potency is on record?
**A.** inconclusive [falling, single point]

**Q.** With `O=C(N/N=C\C=C\c1ccco1)C1COc2ccccc2O1` (stereo not given) as the compound, how does the Potency read?
**A.** active: 23.9 µM

**Q.** For `Nc1ccc2nc(-c3ccccn3)[nH]c2c1`, which Potency is on record?
**A.** inconclusive [falling, single point]

**Q.** How did the Potency turn out when `Cc1[nH]c2ccccc2c1C(=O)C(=O)N1CC=C(c2ccccc2)CC1` was run?
**A.** inconclusive [falling, single point]

**Q.** With `N/C(COc1ncn(-c2ccccc2)n1)=N\S(=O)(=O)c1ccc(Cl)cc1Cl` as the compound, how does the “activity, negative = inhibition” value read?
**A.** inactive: -2.69%

**Q.** With `CN(C)S(=O)(=O)c1cccc(NC(=O)COC(=O)/C=C/c2ccco2)c1` as the compound, how does the Potency read?
**A.** inconclusive [falling, single point]

**Q.** How did the Potency turn out when `O=C1CCC/C1=C\Nc1ccc(Cl)c([N+](=O)[O-])c1` was run?
**A.** inconclusive [falling, single point]

**Q.** With `C=CCN1C(=O)C(CC(=O)Nc2ccc(OCCC)cc2)N(CCCN2CCN(Cc3ccccc3)CC2)C1=S` (stereo not given) as the compound, how does the “activity, negative = inhibition” value read?
**A.** inactive: 4.34%

**Q.** For `CC(OC(=O)c1ccc(NC(=O)CC#N)cc1)C(=O)Nc1ccc(Oc2ccccc2)cc1` (stereo not given), which Potency is on record?
**A.** inconclusive [falling, single point]

**Q.** How did the Potency turn out when `CCOc1ccccc1-n1nnnc1SCC(=O)NC(=O)NCc1ccco1` was run?
**A.** inconclusive [falling, single point]

**Q.** `COc1ccc(C(=O)NCc2ccc(Cl)c(Cl)c2)cc1OC` was tested. Which Potency did it give?
**A.** active: 13.5 µM

**Q.** For `Clc1ccc(CSc2nnc3c(n2)[nH]c2ccccc23)cc1`, which Potency is on record?
**A.** inconclusive [activator, full curve, poor fit]

**Q.** Which Potency does the source give for `O=c1[nH]c(=S)[nH]c2c1C(c1ccc(Br)cc1)c1c([nH]c(=S)[nH]c1=O)O2` here?
**A.** inconclusive [falling, single point]

**Q.** Which “activity, negative = inhibition” value does the source give for `COc1ccc2[nH]c3c(c2c1)CCN1C(=O)C(CC(=O)NCc2ccco2)C[C@H](C(=O)N2CCOCC2)[C@@]31C` (stereo not given in full) here?
**A.** inactive: -3.98%

**Q.** Which Potency does the source give for `NC(=O)NCc1cccc(Cl)c1` here?
**A.** inconclusive [falling, single point]

**Q.** `CCC(=O)N(CC)C1=C(O)c2ccccc2C(=O)C1=O` was tested. Which Potency did it give?
**A.** inconclusive [falling, full curve]

**Q.** Which Potency does the source give for `CC(NC(=O)CCNC(=O)c1ccc(C(C)(C)C)cc1)c1ccccc1` (stereo not given) here?
**A.** inconclusive [falling, single point]

**Q.** How did the Potency turn out when `Cc1ccc(/C=c2\sc3n(c2=O)CN(c2ccc(Br)cc2)CN=3)o1` was run?
**A.** inconclusive [falling, partial curve]

**Q.** Which Potency does the source give for `Cc1nc2ccc(NC3=NCCCCC3)cc2s1` here?
**A.** active: 10.7 µM

**Q.** `Clc1ccc(CN2CCc3c([nH]c4ccccc34)C2)cc1Cl` was tested. Which Potency did it give?
**A.** inconclusive [falling, single point]

**Q.** How did the Potency turn out when `COc1cccc(C2=NOC(C(=O)NCc3cccnc3)C2)c1` (stereo not given) was run?
**A.** inconclusive [falling, single point]

**Q.** For `CC1=NN(CCC#N)C(=O)/C1=C/c1ccc(N(C)C)cc1`, which Potency is on record?
**A.** active: 21.3 µM

**Q.** How did the Potency turn out when `CC(=O)Oc1ccc(CC(C(=O)O)N2C(=O)c3ccccc3C2=O)cc1` (stereo not given) was run?
**A.** inconclusive [falling, partial curve]

**Q.** How did the Potency turn out when `CCc1ccc(C(C(=O)NC2CCCC2)N(CCOC)C(=O)CCC(=O)Nc2cc(C)on2)cc1` (stereo not given) was run?
**A.** inconclusive [falling, single point]

**Q.** For `Cn1ncc(Cl)c1C(=O)N1CCC(Cc2ccccc2)CC1`, which “activity, negative = inhibition” value is on record?
**A.** inactive: 1.46%

**Q.** `COc1ccc(-n2nc(C(=O)NCC(=O)NCCCN3CCCCCC3)c3ccccc3c2=O)cc1Cl` was tested. Which Potency did it give?
**A.** inconclusive [activator, single point]

**Q.** `CCC1(C)Cc2c(sc(NC(=S)NC(=O)c3ccccc3)c2C#N)CO1` (stereo not given) was tested. Which “activity, negative = inhibition” value did it give?
**A.** inactive: 0%

**Q.** Which Potency does the source give for `CCOC(=O)c1c(C)[nH]c(-c2csc(N)n2)c1C` here?
**A.** inconclusive [falling, single point]

**Q.** With `COc1ccc(C(=O)Nc2c(N)nc(SCC(=O)Nc3ccc(NC(C)=O)cc3)[nH]c2=O)cc1` as the compound, how does the Potency read?
**A.** inconclusive [falling, single point]

**Q.** With `Cc1cc(-c2nnc(SCCC(=O)Nc3ccccc3)o2)no1` as the compound, how does the Potency read?
**A.** inconclusive [falling, single point]

**Q.** Which Potency does the source give for `COc1cc(O)c(C(CC(=O)N2CCOCC2)c2ccc(N(C)C)cc2)c(OC)c1` (stereo not given) here?
**A.** inconclusive [falling, single point]

**Q.** Which Potency does the source give for `CN(C)C(=O)N=NC(=O)N(C)C` here?
**A.** inconclusive [falling, partial curve]

**Q.** `CCOC(=O)C1CCCN(C(=O)CNS(=O)(=O)c2ccc(Br)s2)C1` (stereo not given) was tested. Which “activity, negative = inhibition” value did it give?
**A.** inactive: 1.13%

**Q.** With `Cc1cccc(NC2=C(NC(=O)c3ccccc3)C(=O)c3ccccc3C2=O)c1` as the compound, how does the Potency read?
**A.** inconclusive [falling, single point]

**Q.** Which “activity, negative = inhibition” value does the source give for `O=C(CN1CCN(c2ccc(Cl)cc2)CC1)Nc1ccc(F)c(F)c1` here?
**A.** inactive: -6.14%

**Q.** For `O=C(NCCN1CCOCC1)C1CCC(=O)N1Cc1ccccc1Cl` (stereo not given), which Potency is on record?
**A.** inconclusive [falling, single point]

**Q.** `COc1ccc(OC)c(S(=O)(=O)N/N=C\c2c[nH]c3ccccc23)c1` was tested. Which Potency did it give?
**A.** inconclusive [falling, single point]

**Q.** Which “activity, negative = inhibition” value does the source give for `O=C(NN1C(=O)/C(=C/c2ccc(O)c([N+](=O)[O-])c2)SC1=S)c1ccccc1Cl` here?
**A.** inactive: -0.427%

**Q.** With `C=C(C)C(=O)Nc1cccc(C2=NOC3(C2)C[C@H](C(N)=O)N(C(=O)/C=C/C)C3)c1` (stereo not given in full) as the compound, how does the Potency read?
**A.** inconclusive [falling, partial curve]

**Q.** For `COc1cc(O)c2c(=O)c(-c3ccc(O[C@@H]4O[C@H](CO)[C@@H](O)[C@H](O)[C@H]4O)cc3)coc2c1`, which “activity, negative = inhibition” value is on record?
**A.** inactive: 0.117%

**Q.** With `C/C=C(\C)C(=O)Nc1cccc(C2=NOC3(C2)C[C@@H](C(N)=O)N(C(=O)/C(C)=C/C)C3)c1` (stereo not given in full) as the compound, how does the “activity, negative = inhibition” value read?
**A.** inactive: -4.97%

**Q.** Which Potency does the source give for `O=C(CSc1ccccn1)Nc1ccc2c(c1)C(=O)c1ccccc1C2=O` here?
**A.** inconclusive [falling, single point]
